Hit rate of the full screen: of about 350,000 compounds, about 9,900 (2.8%) were called active. This list was built around the results that the source calls inconclusive (neither active nor inactive); the mix of calls is not that of the screen. Calls come from the whole dose curve; as a rule, active = well fitted activation curve with a large enough effect; inconclusive = small, poorly fitted or top-dose-only effect; inactive = no such curve, though single readings can be large or run the other way. No potency is given beside an inconclusive call; the fits are too rough.
assay: A quantitative high throughput screen for small molecules that induce DNA re-replication in MCF 10a normal breast cells.; note: nearly all actives have a fitted effect of over 50% in size; conditions: MCF 10A DNA re-replication, Hoechst nuclear intensity, 48 h; series mostly up to 46.1 µM
Potency is the fitted concentration of half-maximal effect; tags give direction and shape of the fitted curve.

SMILES	Potency
COc1ccc(NC(=O)[C@@H]2CC=C[C@@H]3CCN(C4CCCCC4)C(=O)[C@@H]32)cc1	inconclusive [activator, partial curve, poor fit]
CCc1ccc(C(C(=O)NC2CCCC2)N(C(=O)c2csnn2)C2CC2)cc1 (stereo unspecified)	inactive
Cc1c(C(=O)N2CCN(C(=O)c3ccccc3)CC2)oc2ccc(F)cc12	inactive
CCCCCOCC1CC(C/C(C)=N/NC(N)=S)C(=O)O1 (stereo unspecified)	inconclusive [activator, partial curve, poor fit]
C/C(O)=c1/cnc2nc3ccccc3n2c1=O	inactive
NC(=O)NC(=O)CN1c2cccc3cccc(c23)S1(=O)=O	inactive
Cc1ccc2c(C)c(C(=O)N3CCCC(C(N)=O)C3)oc2c1C (stereo unspecified)	inactive
O=C(Nc1n[nH]c(=S)s1)c1ccc2ccccc2c1	inactive
O=C(C[C@H]1C[C@H](C(=O)N2CCOCC2)[C@@]2(CCC3CCCC3)c3[nH]c4cc(-c5ccco5)ccc4c3CCN2C1=O)NCCN1CCOCC1	inconclusive [activator, single point]
O=C(COC(=O)c1cc[n+]([O-])cc1)Nc1ccc([N+](=O)[O-])cc1	inconclusive [activator, single point]
COc1ccc(OC)c(/C=N/N=C2\SCC(=O)N2Cc2ccco2)c1	inactive
N#Cc1cc(-c2ccccc2)[nH]c1-c1nccc2ccccc12	inconclusive [activator, single point]
CCCC(c1nnnn1Cc1ccc(OC)cc1)N1CCN(c2ccccc2)CC1 (stereo unspecified)	inconclusive [activator, partial curve]
N#CN=C1SCCS1	inconclusive [activator, single point]
CCc1ccc2nc(N=C(N)N)nc(C)c2c1	inactive
COc1ccc(C(C(=O)NC2CCCCC2)N(C(=O)CCl)c2ccc(Cl)cc2)cc1 (stereo unspecified)	inconclusive [activator, single point]
CSc1nccc(-c2sc(SC)c(C#N)c2-c2ccccc2)n1	inconclusive [activator, single point]
Cn1cc(CNCc2ccc(OC(F)(F)F)cc2)c(-c2ccc3c(c2)OCCO3)n1	inconclusive [activator, partial curve]
COc1ccc(-c2nc(NC(=O)C3CC(=O)N(c4ccc5c(c4)OCCO5)C3)sc2C)cc1 (stereo unspecified)	active: 3.26 µM
O=C(O)CSc1cc(NS(=O)(=O)c2cccc([N+](=O)[O-])c2)c2ccccc2c1O	active: 2.06 µM
O=C(Nc1ccc(SC(F)F)cc1)C1=CC=CN2CCS(=O)(=O)N=C12	inactive
CC(C(=O)Nc1ccc(C(F)(F)F)cc1)N(C)CC(=O)N1CCN(Cc2ccccc2)CC1 (stereo unspecified)	inactive
O=C(Nc1nc2cc3c(cc2s1)OCO3)c1ccco1	inconclusive [activator, single point]
COc1ccccc1N(CC(=O)NC1CCCCC1)S(C)(=O)=O	inconclusive [activator, single point]

SMILES	Potency
Nc1c(C(=O)NCc2ccco2)sc2nc(N3CCOCC3)c3c(c12)CCCC3	inconclusive [activator, single point]
Nc1ccccc1C(=O)Nc1ccc(Cl)cc1Cl	inconclusive [activator, partial curve, poor fit]
N#CC1=C(N)NC(SCc2ccc(Cl)cc2)=C(C#N)C12CCCCC2	inconclusive [activator, single point]
O=C(Nc1ccccc1)OCCOc1ccc(Br)cc1	active: 18.4 µM
COCCOC(=O)c1c(C)oc2ccc(NS(=O)(=O)c3ccc(C)cc3)cc12	active: 16.4 µM
COc1ccccc1NC(=O)CSc1nc2ccccc2c(=O)n1CC1CCCO1 (stereo unspecified)	inactive
O=C(O)c1ccc2c(=O)n3cc(C(=O)c4ccccc4O)cc(Cl)c3nc2c1	inconclusive [activator, partial curve, poor fit]
FCCCOc1ccc(-c2nccc(-c3ccc(F)cc3)n2)cc1	inconclusive [activator, single point]
O=C1CC(=Nc2ccccc2)NN1c1ccccc1	inconclusive [activator, single point]
CCOc1cc(CNc2ccccc2)cc(Br)c1OCc1ccccc1F	inconclusive [activator, partial curve, poor fit]
Cc1ccc(S(=O)(=O)N(C)C)cc1NC(=O)c1cc(-c2ccco2)nc2ccccc12	inconclusive [activator, partial curve]
CCOc1cc(/C=N/N2CCN(Cc3ccccc3)CC2)ccc1O	inconclusive [activator, single point]
CN1CCCN(C(=O)c2cc3c(s2)CCCC3)CC1	inconclusive [activator, single point]
O=c1c2ccccc2nc(/C=C/c2ccc([N+](=O)[O-])o2)n1CCCO	active: 4.47 µM
COc1cc(C(C[N+](=O)[O-])c2c(-c3ccccc3)cc3ccccn23)cc(OC)c1OC (stereo unspecified)	inconclusive [activator, single point]
O=C(COC(=O)c1nc(Cl)ccc1Cl)NCc1cccs1	inactive
COc1ccc(C(=O)c2ccc(Cl)c([N+](=O)[O-])c2)cc1	active: 3.66 µM
O=C(O)C1C2C=CC(O2)C1C(=O)Nc1ccccn1 (stereo unspecified)	inactive
CCC(=O)OCC(=O)N=c1sccn1Cc1ccc(C)cc1	inactive
CCOC(=O)Cc1csc(NC(=O)c2ccc(N3CCOCC3)cc2[N+](=O)[O-])n1	inactive
CC(=O)N(C(C)=O)C1=C(C#N)C2(CCCCC2)Cc2ccccc21	inconclusive [activator, single point]
COc1ccc(/C=C/c2c([N+](=O)[O-])c(=O)n(C)c(=O)n2C)c(OC)c1OC	inconclusive [activator, single point]
COc1cc(C2c3cc4c(cc3OC(NNC(N)=O)C2C)OCO4)cc(OC)c1OC (stereo unspecified)	active: 0.731 µM
COc1ccccc1CCNC(=O)c1cc(C2CC2)nc2c1cnn2C(C)C	inconclusive [activator, single point]

SMILES	Potency
COc1ccc(O)c(/C=N/Nc2nc(C)cc(-c3ccccc3)n2)c1	inconclusive [activator, single point]
CCc1nnc(NC(=O)C2Cc3ccccc3CN2S(=O)(=O)c2ccc(C)cc2)s1 (stereo unspecified)	inconclusive [activator, partial curve, poor fit]
CC(C(=O)NC1=NCCS1)(C(F)(F)F)C(F)(F)F	inconclusive [activator, partial curve, poor fit]
NC(=O)C1CC(O)CN1c1nc(CN2CCOCC2)nc2scc(-c3ccccc3)c12 (stereo unspecified)	inconclusive [activator, single point]
COC(=O)C1CCN(C(=O)CC(NC(=O)C(F)(F)F)c2cccs2)CC1 (stereo unspecified)	inconclusive [activator, single point]
CC(C)Cc1ccc(/C=C/C(=O)NC2CC2)cc1	inconclusive [activator, single point]
COc1nc(-c2ccc(Cl)cc2)ccc1-c1noc(-c2ccco2)n1	inconclusive [activator, partial curve]
O=C1CN(C(=O)COC(=O)c2ccccc2O)c2ccccc2N1	inactive
CCc1ccc(CNC(=O)C2CCN(S(=O)(=O)N3CCC(C)CC3)CC2)cc1	inactive
COCCn1c(=S)[nH]c2cc(C(=O)N3CC(C)CC(C)C3)ccc2c1=O (stereo unspecified)	inactive
C/C(=C\C(=O)OCC(=O)NCc1ccccc1)C(=O)OCC(=O)NCc1ccccc1	inactive
C/C=C1\COC(C(=O)NCc2ccccc2)(C(F)(F)F)C=C1C=C1CCCCC1 (stereo unspecified)	inactive
Clc1ccccc1-c1nc(-c2ccncc2)no1	inconclusive [activator, single point]
O=C(CCS(=O)(=O)c1ccc(F)cc1)Nc1nnc(-c2ccc(F)cc2)o1	inconclusive [activator, single point]
Cc1cccc(NC(=O)CCC2CCN(C(=O)c3ccc(C)s3)CC2)c1	inactive
COC(=O)C1=C(C)NC(C)=C(C(=O)OCC2CCCO2)C1c1cccc(Br)c1 (stereo unspecified)	inconclusive [activator, single point]
Cc1ccc(CNc2nc(Cl)c(C#N)s2)cc1	inconclusive [activator, single point]
COc1ccc2cc(-c3ccccc3F)ncc2c1	inconclusive [activator, single point]
CC1CC(C)CN(C(=O)c2ccc(-c3ccc([N+](=O)[O-])cc3)o2)C1 (stereo unspecified)	inconclusive [activator, single point]
CCc1cc(=O)oc2c3c(cc(OCC(=O)NCCCn4ccnc4)c12)OC(C)(C)CC3	inconclusive [activator, partial curve, poor fit]
Nc1nc2nc(-c3ccc(Cl)cc3)cc(C(F)(F)F)n2n1	inconclusive [activator, partial curve, poor fit]
O=[N+]([O-])c1cc(Cl)cc(/C=N/Nc2nc3ccccc3s2)c1O	inconclusive [activator, partial curve, poor fit]
CCCCC(=O)NC(=S)Nc1ccc(S(=O)(=O)N2CCCC2)cc1	inconclusive [activator, partial curve, poor fit]
